According to the supplement of paper PMC10369915:
The other results are listed elsewhere or left out. No stated cut-off is given here; in the data, active = 3.2 or more and inactive = the rest. Only a few entries rise above the background.

Assays:
Experiment in all cases: enrichment score (SH2-bound / input frequency) (ratio); bacterial display of known human phosphotyrosine sites (pTyr-Var adds point mutants) read by sequencing; higher = stronger binding; tyrosines were phosphorylated by kinases first
Settings in all cases: peptide library: pTyr-Var
SHP2 C-SH2 domain E139D = biological target: SHP2 C-SH2 domain E139D
[1] = biological target: SHP2 C-SH2 domain wild-type
SHP2 N-SH2 domain L43F = biological target: SHP2 N-SH2 domain L43F
SHP2 N-SH2 domain T42A = biological target: SHP2 N-SH2 domain T42A
SHP2 N-SH2 domain T52S = biological target: SHP2 N-SH2 domain T52S
[2] = biological target: SHP2 N-SH2 domain wild-type

Measured: enrichment score
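Further: displayed peptides selected on beads carrying the immobilized SH2 domain, with library peptides lacking any tyrosine serving as negative controls.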

LDLSYYHTSSS [EMD_Y182_P183H]
inactive: SHP2 C-SH2 domain E139D 0.827 | [1] 0.67 | SHP2 N-SH2 domain L43F 0.635 | SHP2 N-SH2 domain T42A 0.821 | SHP2 N-SH2 domain T52S 0.982 | [2] 0.616

LDLSFYTTSSS [EMD_Y182_P183T_YF]
inactive: SHP2 C-SH2 domain E139D 1.24 | [1] 1.36 | SHP2 N-SH2 domain L43F 1.5 | SHP2 N-SH2 domain T42A 1.12 | SHP2 N-SH2 domain T52S 1.04 | [2] 1.2

EKLQQYIAPGM [EPHB3_Y600]
inactive: SHP2 C-SH2 domain E139D 1.07 | [1] 1.05 | SHP2 N-SH2 domain L43F 0.924 | SHP2 N-SH2 domain T42A 0.875 | SHP2 N-SH2 domain T52S 0.933 | [2] 1.07

DKHGQYLIGHG [EPHB4_Y581]
inactive: SHP2 C-SH2 domain E139D 1.03 | [1] 1.15 | SHP2 N-SH2 domain L43F 0.755 | SHP2 N-SH2 domain T42A 0.655 | SHP2 N-SH2 domain T52S 0.965 | [2] 0.989

EFGEVYKGMLK [EPHA2_Y628]
inactive: SHP2 C-SH2 domain E139D 0.538 | [1] 0.696 | SHP2 N-SH2 domain L43F 0.472 | SHP2 N-SH2 domain T42A 0.506 | SHP2 N-SH2 domain T52S 0.726 | [2] 0.621

DPEAAYTTRGG [EPHA3_Y779]
inactive: SHP2 C-SH2 domain E139D 0.326 | [1] 0.362 | SHP2 N-SH2 domain L43F 0.32 | SHP2 N-SH2 domain T42A 0.361 | SHP2 N-SH2 domain T52S 0.4 | [2] 0.444

DPEGAYTTRGG [EPHA3_Y779_A777G]
inactive: SHP2 C-SH2 domain E139D 0.359 | [1] 0.511 | SHP2 N-SH2 domain L43F 0.388 | SHP2 N-SH2 domain T42A 0.506 | SHP2 N-SH2 domain T52S 0.323 | [2] 0.522

HGDSAYHSQRH [ERBB3_Y1132_R1127H]
inactive: SHP2 C-SH2 domain E139D 1.28 | [1] 1.5 | SHP2 N-SH2 domain L43F 0.955 | SHP2 N-SH2 domain T42A 1.05 | SHP2 N-SH2 domain T52S 1.07 | [2] 1.23

LSDGPYSNPYE [EPOR_Y485]
inactive: SHP2 C-SH2 domain E139D 0.31 | [1] 0.737 | SHP2 N-SH2 domain L43F 0.527 | SHP2 N-SH2 domain T42A 0.84 | SHP2 N-SH2 domain T52S 0.989 | [2] 0.155

AFDNLYFWDQD [ERBB2_Y1221_YF]
inactive: SHP2 C-SH2 domain E139D 1.07 | [1] 1.06 | SHP2 N-SH2 domain L43F 1.06 | SHP2 N-SH2 domain T42A 0.749 | SHP2 N-SH2 domain T52S 0.887 | [2] 0.893

LAEMNYVHQDL [EPHB1_Y740_R743Q]
inactive: SHP2 C-SH2 domain E139D 0.619 | [1] 0.584 | SHP2 N-SH2 domain L43F 0.755 | SHP2 N-SH2 domain T42A 0.738 | SHP2 N-SH2 domain T52S 0.799 | [2] 0.722

VDTFWYKLLKR [EPM2A_Y86_F88L]
inactive: SHP2 C-SH2 domain E139D 0.465 | [1] 0.582 | SHP2 N-SH2 domain L43F 0.579 | SHP2 N-SH2 domain T42A 0.517 | SHP2 N-SH2 domain T52S 0.493 | [2] 0.646

SVKVYYKKCWS [EPHA7_Y202]
inactive: SHP2 C-SH2 domain E139D 0.622 | [1] 0.976 | SHP2 N-SH2 domain L43F 0.622 | SHP2 N-SH2 domain T42A 0.549 | SHP2 N-SH2 domain T52S 0.509 | [2] 1.12

RTMPDYTSFNT [EPHB2_Y912_I909M]
inactive: SHP2 C-SH2 domain E139D 1.06 | [1] 0.741 | SHP2 N-SH2 domain L43F 0.515 | SHP2 N-SH2 domain T42A 0.657 | SHP2 N-SH2 domain T52S 0.662 | [2] 0.968

INNKMYDPKMN [ENPP1_Y280_D276N]
inactive: SHP2 C-SH2 domain E139D 0.86 | [1] 0.62 | SHP2 N-SH2 domain L43F 0.728 | SHP2 N-SH2 domain T42A 0.659 | SHP2 N-SH2 domain T52S 0.724 | [2] 0.685

PYSNSYENSLI [EPOR_Y489_P488S]
inactive: SHP2 C-SH2 domain E139D 1.71 | [1] 1.44 | SHP2 N-SH2 domain L43F 1.7 | SHP2 N-SH2 domain T42A 1.29 | SHP2 N-SH2 domain T52S 1.24 | [2] 1.62

HGAKVYIDPFT [EPHB4_Y590_T587A]
inactive: SHP2 C-SH2 domain E139D 0.871 | [1] 0.811 | SHP2 N-SH2 domain L43F 0.585 | SHP2 N-SH2 domain T42A 1.27 | SHP2 N-SH2 domain T52S 0.811 | [2] 1.35

LDLSFYPTSSS [EMD_Y182_YF]
inactive: SHP2 C-SH2 domain E139D 1.5 | [1] 1.2 | SHP2 N-SH2 domain L43F 1.13 | SHP2 N-SH2 domain T42A 0.89 | SHP2 N-SH2 domain T52S 1.38 | [2] 1.47

VDTLWYKFLKR [EPM2A_Y86_F84L]
inactive: SHP2 C-SH2 domain E139D 0.792 | [1] 0.747 | SHP2 N-SH2 domain L43F 0.564 | SHP2 N-SH2 domain T42A 0.678 | SHP2 N-SH2 domain T52S 0.733 | [2] 0.768

LADMNYVHCDL [EPHB2_Y742_R745C]
inactive: SHP2 C-SH2 domain E139D 0.97 | [1] 1.23 | SHP2 N-SH2 domain L43F 1.11 | SHP2 N-SH2 domain T42A 0.837 | SHP2 N-SH2 domain T52S 1.16 | [2] 1.3

EKHGQYLIGHG [EPHB4_Y581_D576E]
inactive: SHP2 C-SH2 domain E139D 1.22 | [1] 0.825 | SHP2 N-SH2 domain L43F 0.864 | SHP2 N-SH2 domain T42A 0.792 | SHP2 N-SH2 domain T52S 0.785 | [2] 0.808

EKLQQYLAPGM [EPHB3_Y600_I601L]
inactive: SHP2 C-SH2 domain E139D 0.846 | [1] 0.844 | SHP2 N-SH2 domain L43F 0.99 | SHP2 N-SH2 domain T42A 0.587 | SHP2 N-SH2 domain T52S 0.9 | [2] 0.797

AVRVFYRKCPR [EPHB2_Y194]
inactive: SHP2 C-SH2 domain E139D 0.26 | [1] 0.242 | SHP2 N-SH2 domain L43F 0.291 | SHP2 N-SH2 domain T42A 0.204 | SHP2 N-SH2 domain T52S 0.247 | [2] 0.255

VDTFWYKFLKR [EPM2A_Y86]
inactive: SHP2 C-SH2 domain E139D 0.687 | [1] 0.55 | SHP2 N-SH2 domain L43F 0.575 | SHP2 N-SH2 domain T42A 0.384 | SHP2 N-SH2 domain T52S 0.436 | [2] 0.637

SVKVYYKKCWF [EPHA7_Y202_S207F]
inactive: SHP2 C-SH2 domain E139D 0.55 | [1] 0.8 | SHP2 N-SH2 domain L43F 0.717 | SHP2 N-SH2 domain T42A 0.626 | SHP2 N-SH2 domain T52S 0.552 | [2] 0.909

FAAAGYGSLEA [EPHA10_Y959]
inactive: SHP2 C-SH2 domain E139D 0.692 | [1] 0.695 | SHP2 N-SH2 domain L43F 0.808 | SHP2 N-SH2 domain T42A 0.682 | SHP2 N-SH2 domain T52S 0.675 | [2] 0.703

FTGVEYSSCDT [EPHA3_Y937]
inactive: SHP2 C-SH2 domain E139D 0.759 | [1] 0.935 | SHP2 N-SH2 domain L43F 0.961 | SHP2 N-SH2 domain T42A 2.36 | SHP2 N-SH2 domain T52S 0.757 | [2] 0.704

FMGVEYSSCDT [EPHA3_Y937_T933M]
inactive: SHP2 C-SH2 domain E139D 0.782 | [1] 1.08 | SHP2 N-SH2 domain L43F 1.01 | SHP2 N-SH2 domain T42A 2.2 | SHP2 N-SH2 domain T52S 0.653 | [2] 1.12

VDTFWYKFLKP [EPM2A_Y86_R91P]
inactive: SHP2 C-SH2 domain E139D 0.904 | [1] 0.744 | SHP2 N-SH2 domain L43F 0.854 | SHP2 N-SH2 domain T42A 0.863 | SHP2 N-SH2 domain T52S 0.731 | [2] 0.945

TAALWYIYSHT [ENG_Y612]
inactive: SHP2 C-SH2 domain E139D 1.62 | [1] 1.57 | SHP2 N-SH2 domain L43F 2.3 | SHP2 N-SH2 domain T42A 1.27 | SHP2 N-SH2 domain T52S 1.7 | [2] 1.56

ILDEAYVMAGA [ERBB2_Y772_V777A]
inactive: SHP2 C-SH2 domain E139D 0.95 | [1] 0.723 | SHP2 N-SH2 domain L43F 0.896 | SHP2 N-SH2 domain T42A 0.661 | SHP2 N-SH2 domain T52S 0.941 | [2] 0.879

LDLSYYTTSSS [EMD_Y182_P183T]
inactive: SHP2 C-SH2 domain E139D 1.18 | [1] 1.2 | SHP2 N-SH2 domain L43F 1.46 | SHP2 N-SH2 domain T42A 1.21 | SHP2 N-SH2 domain T52S 1.28 | [2] 1.04

TAALWYIYLHT [ENG_Y612_S615L]
inactive: SHP2 C-SH2 domain E139D 0.92 | [1] 1.27 | SHP2 N-SH2 domain L43F 1.1 | SHP2 N-SH2 domain T42A 0.932 | SHP2 N-SH2 domain T52S 0.781 | [2] 1.19

ERMKVYVPTGF [EPHX1_Y393]
inactive: SHP2 C-SH2 domain E139D 0.878 | [1] 0.82 | SHP2 N-SH2 domain L43F 0.893 | SHP2 N-SH2 domain T42A 0.774 | SHP2 N-SH2 domain T52S 0.802 | [2] 0.804

LTVVIYVLVGR [EPHA3_Y561_I564V]
inactive: SHP2 C-SH2 domain E139D 0.622 | [1] 0.584 | SHP2 N-SH2 domain L43F 0.287 | SHP2 N-SH2 domain T42A 0.512 | SHP2 N-SH2 domain T52S 0.608 | [2] 0.247

KRPAVYIDEEA [EPM2A_Y304]
inactive: SHP2 C-SH2 domain E139D 0.997 | [1] 0.726 | SHP2 N-SH2 domain L43F 0.885 | SHP2 N-SH2 domain T42A 0.841 | SHP2 N-SH2 domain T52S 0.647 | [2] 0.804

QYNMQYSSSAA [ERBB2IP_Y981_I979M]
inactive: SHP2 C-SH2 domain E139D 1.01 | [1] 1.01 | SHP2 N-SH2 domain L43F 1.47 | SHP2 N-SH2 domain T42A 1.12 | SHP2 N-SH2 domain T52S 0.78 | [2] 1.23
